{"source": "the supplement of paper PMC7826260", "note": "This is one part of the list. Each Rep nickase domain was tested in vitro on the same pool of single strands for 1 h at 37 °C with 3 µM enzyme; only the middle of the 90-letter strands is printed. Numbers give uncut DNA relative to the enzyme-free pool, as log2; the lower, the more was cut; hits are not called. Because reads are shares of a total, they shift together; where an enzyme cuts many sequences, the uncut ones exceed 0."}
{"test_system": "T1, Rep nickase domain of tomato yellow leaf curl virus", "T1 sequence (residues 1-136 of Rep, tag left off)": "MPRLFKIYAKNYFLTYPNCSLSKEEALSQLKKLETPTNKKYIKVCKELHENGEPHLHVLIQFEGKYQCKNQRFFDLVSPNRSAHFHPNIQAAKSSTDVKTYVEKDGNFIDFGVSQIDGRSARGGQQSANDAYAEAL", "experiment": "uncleaved DNA left, log2 of reads against the no-enzyme library (log2 ratio); higher = less cleavage (more negative = more Rep cleavage of the k-mer); sequences stand for … in CTCGTCCG…ACCGGAGA", "experimental": "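A pool of 90-nt single-stranded DNAs with seven random bases just before the constant AC of the nick site (name = the seven bases) was cut by 3 µM recombinant His6-SUMO-tagged Rep nickase domain (300 nM DNA, 50 mM HEPES pH 8.0, 50 mM NaCl, 1 mM MnCl2, 1 h, 37 °C, three replicates). Uncut DNA was amplified and sequenced.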"}
{"sequence": "TCGAATC", "uncleaved DNA left (log2)": -0.0152}
{"sequence": "TTCCTCG", "uncleaved DNA left (log2)": -0.0284}
{"sequence": "GGGGCGC", "uncleaved DNA left (log2)": -0.126}
{"sequence": "TTCCGGC", "uncleaved DNA left (log2)": -0.0486}
{"sequence": "AGCTTTC", "uncleaved DNA left (log2)": -0.113}
{"sequence": "ATACCAC", "uncleaved DNA left (log2)": -0.0177}
{"sequence": "CCTCATG", "uncleaved DNA left (log2)": -0.203}
{"sequence": "TCGCTCT", "uncleaved DNA left (log2)": 0.109}
{"sequence": "TAATAAT", "uncleaved DNA left (log2)": -3.61}
{"sequence": "GTGCCAC", "uncleaved DNA left (log2)": 0.0942}
{"sequence": "CTGCCCG", "uncleaved DNA left (log2)": -0.172}
{"sequence": "TGCGACT", "uncleaved DNA left (log2)": -0.0747}
{"sequence": "GTAATCT", "uncleaved DNA left (log2)": 0.011}
{"sequence": "GGTCGTG", "uncleaved DNA left (log2)": 0.0996}
{"sequence": "AGGCATT", "uncleaved DNA left (log2)": 0.0717}
{"sequence": "GTCGGTT", "uncleaved DNA left (log2)": -0.0274}
{"sequence": "GCGCGTT", "uncleaved DNA left (log2)": -0.0564}
{"sequence": "AGACCAC", "uncleaved DNA left (log2)": 0.1}
{"sequence": "CCGTCAA", "uncleaved DNA left (log2)": 0.0835}
{"sequence": "TGATGCA", "uncleaved DNA left (log2)": -0.00199}
{"sequence": "CTTAAAT", "uncleaved DNA left (log2)": 0.0415}
{"sequence": "TACTTTA", "uncleaved DNA left (log2)": 0.0795}
{"sequence": "GTGGGAA", "uncleaved DNA left (log2)": 0.0845}
{"sequence": "CTGCATA", "uncleaved DNA left (log2)": 0.0972}
{"sequence": "TAACCAC", "uncleaved DNA left (log2)": -0.0203}
{"sequence": "AGTCGGT", "uncleaved DNA left (log2)": 0.0162}
{"sequence": "TCAAAGA", "uncleaved DNA left (log2)": -0.12}
{"sequence": "GAACACA", "uncleaved DNA left (log2)": 0.0846}
{"sequence": "TACGCCA", "uncleaved DNA left (log2)": 0.0253}
{"sequence": "GGGGTCG", "uncleaved DNA left (log2)": 0.0253}
{"sequence": "CCCGAAA", "uncleaved DNA left (log2)": -0.0594}
{"sequence": "CCTCGTG", "uncleaved DNA left (log2)": 0.0469}
{"sequence": "CATCAGT", "uncleaved DNA left (log2)": -0.0215}
{"sequence": "CGCGTTC", "uncleaved DNA left (log2)": 0.00112}
{"sequence": "AGTAGGA", "uncleaved DNA left (log2)": -0.0522}
{"sequence": "TCCGGCA", "uncleaved DNA left (log2)": 0.0072}
{"sequence": "CCGCAAC", "uncleaved DNA left (log2)": -0.0166}
{"sequence": "ATACTGG", "uncleaved DNA left (log2)": 0.0205}
{"sequence": "TGGCAGA", "uncleaved DNA left (log2)": -0.102}
{"sequence": "ACCTTCA", "uncleaved DNA left (log2)": -0.033}
